pIC50: −log10 of the molar value.
Biological target: seDHQD (type I DHQD) (Salmonella typhimurium, UniProt P58687)
Experiment: biochemical

Sequence of UniProt P58687 (P58687 whole entry): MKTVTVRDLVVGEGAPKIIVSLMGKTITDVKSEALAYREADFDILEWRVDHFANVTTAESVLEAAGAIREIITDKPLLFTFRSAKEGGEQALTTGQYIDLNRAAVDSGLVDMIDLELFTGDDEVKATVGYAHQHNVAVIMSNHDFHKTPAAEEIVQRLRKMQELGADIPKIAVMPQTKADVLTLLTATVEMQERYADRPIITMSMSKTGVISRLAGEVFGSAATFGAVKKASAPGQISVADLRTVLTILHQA

Structure (SMILES) | pIC50
O=C(O)c1ccccc1NC(=O)c1csc2c1CCCC2 [Compound 3] | < 3.70
COc1ccc2nc(NS(=O)(=O)c3cc(Cl)ccc3Cl)sc2c1 [Compound 2] | < 3.70
O=S(=O)(Nc1nc(-c2ccccc2)cs1)c1cc(Cl)ccc1Cl [Compound 1] | < 3.70
